Measurements reported in patent US20200085917A1 (UNIVERSITY OF PITTSBURGH OF THE COMMONWEALTH SYSTEM OF …, published 2020).

Legend:
Experiment in all cases: GST pull-down, LC-MS/MS
[1] = target: T1, Nubpl_IPI:IPI00317709.1 (mouse, UniProt Q9CWD8 39-319)
T1 sequence (looked up): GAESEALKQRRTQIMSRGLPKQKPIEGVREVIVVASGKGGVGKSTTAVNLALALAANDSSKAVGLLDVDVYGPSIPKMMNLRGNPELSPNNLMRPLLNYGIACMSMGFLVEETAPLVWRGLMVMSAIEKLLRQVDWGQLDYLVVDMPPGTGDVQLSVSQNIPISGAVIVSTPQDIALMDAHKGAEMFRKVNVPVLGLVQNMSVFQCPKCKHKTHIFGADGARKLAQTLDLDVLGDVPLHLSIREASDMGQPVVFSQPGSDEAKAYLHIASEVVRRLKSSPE
Procedure: (§1) Extracts were spun at 14,000 r.p.m. at 4° C., and clarified supernatants were incubated with glutathione 4B Sepharose beads (GE Healthcare) at 4° C. overnight. The glutathione beads were then washed extensively with ice-cold TNE buffer, and bound proteins were subjected to SDS-PAGE followed by immunoblotting analysis. For the samples subjected to mass spectrometry, glutathione bead-bound proteins from equal amounts (600 μg) of mitochondria were further washed with high stringency RIPA buffer following TNE buffer wash to decrease nonspecific interaction. Proteins were then eluted from the glutathione beads in SDS sample buffer, separated by SDS-PAGE and stained with Coomassie. Proteins in the gel were digested with trypsin and analyzed by mass spectrometry (LC-MS/MS) at the Taplin Biological Mass Spectrometry Facility (Harvard Medical School, Boston, Mass.).

[2] = target: T2, Sfxn5_IPI:IPI00221602.1 (mouse, UniProt Q925N0 1-342)
T2 sequence (looked up): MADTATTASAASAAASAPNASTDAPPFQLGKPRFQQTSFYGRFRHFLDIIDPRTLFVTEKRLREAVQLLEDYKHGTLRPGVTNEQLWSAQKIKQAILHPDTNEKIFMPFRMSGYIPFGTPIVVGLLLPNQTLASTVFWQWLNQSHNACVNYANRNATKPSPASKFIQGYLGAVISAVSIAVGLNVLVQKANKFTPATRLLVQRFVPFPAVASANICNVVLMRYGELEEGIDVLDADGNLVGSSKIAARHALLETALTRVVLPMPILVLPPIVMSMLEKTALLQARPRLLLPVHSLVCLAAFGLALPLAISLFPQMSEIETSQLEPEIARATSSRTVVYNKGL
Procedure: as §1

[3] = target: T3, Sccpdh_IPI:IPI00153266.1 (mouse, UniProt Q8R127 2-429)
T3 sequence (looked up): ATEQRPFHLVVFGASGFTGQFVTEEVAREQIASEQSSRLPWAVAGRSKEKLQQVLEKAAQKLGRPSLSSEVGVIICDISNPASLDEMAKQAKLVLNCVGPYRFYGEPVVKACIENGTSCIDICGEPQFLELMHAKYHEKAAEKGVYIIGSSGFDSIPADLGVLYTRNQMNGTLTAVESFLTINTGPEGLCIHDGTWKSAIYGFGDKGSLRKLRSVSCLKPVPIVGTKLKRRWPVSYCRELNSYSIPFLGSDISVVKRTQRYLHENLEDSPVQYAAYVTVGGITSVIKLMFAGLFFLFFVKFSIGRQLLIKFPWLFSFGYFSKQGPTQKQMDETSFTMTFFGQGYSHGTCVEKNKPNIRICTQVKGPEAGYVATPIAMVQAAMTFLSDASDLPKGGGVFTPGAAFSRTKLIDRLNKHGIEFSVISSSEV
Procedure: as §1

[4] = target: Letm1_IPI:IPI00131177.1 (mouse, UniProt Q9Z2I0 115-738)
Procedure: as §1

[5] = target: T4, Syngr3_IPI:IPI00331579.1 (mouse, UniProt Q8R191 1-229)
T4 sequence (looked up): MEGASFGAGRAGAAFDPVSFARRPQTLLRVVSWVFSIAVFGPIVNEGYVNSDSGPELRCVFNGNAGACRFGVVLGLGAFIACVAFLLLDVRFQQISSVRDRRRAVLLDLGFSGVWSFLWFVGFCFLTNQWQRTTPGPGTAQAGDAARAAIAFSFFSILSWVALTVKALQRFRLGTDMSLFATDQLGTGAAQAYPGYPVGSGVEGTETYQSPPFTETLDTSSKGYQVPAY
Procedure: as §1

[6] = target: T5, Cyc1_IPI:IPI00132728.2 (mouse, UniProt Q9D0M3 85-325)
T5 sequence (looked up): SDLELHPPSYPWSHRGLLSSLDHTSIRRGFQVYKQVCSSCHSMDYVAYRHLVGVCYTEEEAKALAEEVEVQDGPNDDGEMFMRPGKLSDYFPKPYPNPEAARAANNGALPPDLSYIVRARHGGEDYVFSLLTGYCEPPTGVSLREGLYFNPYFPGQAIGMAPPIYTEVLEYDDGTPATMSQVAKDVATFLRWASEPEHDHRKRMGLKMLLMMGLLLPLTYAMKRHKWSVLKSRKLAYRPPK
Procedure: as §1

[7] = target: T6, Hsd17b10_IPI:IPI00320847.1 (mouse, UniProt O08756 2-261)
T6 sequence (looked up): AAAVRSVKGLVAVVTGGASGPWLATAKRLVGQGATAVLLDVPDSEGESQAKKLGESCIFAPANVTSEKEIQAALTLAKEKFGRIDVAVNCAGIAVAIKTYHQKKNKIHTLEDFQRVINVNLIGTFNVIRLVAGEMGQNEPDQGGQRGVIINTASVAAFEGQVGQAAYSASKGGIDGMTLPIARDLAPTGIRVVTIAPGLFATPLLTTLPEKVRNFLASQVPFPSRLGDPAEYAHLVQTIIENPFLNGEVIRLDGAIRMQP
Procedure: as §1

[8] = target: Slc1a2_IPI:IPI00230289.1 (mouse, UniProt P43006 1-572, limits assumed)
Procedure: as §1

[9] = target: T7, Mpst_IPI:IPI00604945.2 (mouse, UniProt Q99J99 2-297)
T7 sequence (looked up): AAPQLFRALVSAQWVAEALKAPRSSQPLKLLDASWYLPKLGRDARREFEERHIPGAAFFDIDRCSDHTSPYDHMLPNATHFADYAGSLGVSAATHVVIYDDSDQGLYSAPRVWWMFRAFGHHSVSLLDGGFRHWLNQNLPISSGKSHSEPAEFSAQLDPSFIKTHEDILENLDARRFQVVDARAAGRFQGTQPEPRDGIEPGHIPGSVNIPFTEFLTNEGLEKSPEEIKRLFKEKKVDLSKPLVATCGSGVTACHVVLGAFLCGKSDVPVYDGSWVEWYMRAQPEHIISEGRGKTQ
Procedure: as §1

Measured: binding result

Sequence of UniProt Q9Z2I0 (Q9Z2I0 115-738 limits assumed): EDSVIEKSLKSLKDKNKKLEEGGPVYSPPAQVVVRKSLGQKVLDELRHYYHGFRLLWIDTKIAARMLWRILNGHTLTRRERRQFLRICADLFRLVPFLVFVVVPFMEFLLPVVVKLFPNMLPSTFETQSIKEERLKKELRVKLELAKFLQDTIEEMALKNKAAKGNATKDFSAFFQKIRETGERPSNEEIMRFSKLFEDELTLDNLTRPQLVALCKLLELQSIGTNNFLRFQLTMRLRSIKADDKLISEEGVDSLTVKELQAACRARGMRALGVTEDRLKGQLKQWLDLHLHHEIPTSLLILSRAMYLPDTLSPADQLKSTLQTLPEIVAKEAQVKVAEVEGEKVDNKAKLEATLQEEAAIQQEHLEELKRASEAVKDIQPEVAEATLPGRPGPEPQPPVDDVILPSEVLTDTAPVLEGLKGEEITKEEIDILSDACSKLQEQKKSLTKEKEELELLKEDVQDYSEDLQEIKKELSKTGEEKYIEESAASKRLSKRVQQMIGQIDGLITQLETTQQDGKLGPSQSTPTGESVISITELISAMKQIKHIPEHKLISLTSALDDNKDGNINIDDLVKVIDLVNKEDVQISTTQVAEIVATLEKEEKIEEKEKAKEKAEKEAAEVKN
Sequence of UniProt P43006 (P43006 whole entry): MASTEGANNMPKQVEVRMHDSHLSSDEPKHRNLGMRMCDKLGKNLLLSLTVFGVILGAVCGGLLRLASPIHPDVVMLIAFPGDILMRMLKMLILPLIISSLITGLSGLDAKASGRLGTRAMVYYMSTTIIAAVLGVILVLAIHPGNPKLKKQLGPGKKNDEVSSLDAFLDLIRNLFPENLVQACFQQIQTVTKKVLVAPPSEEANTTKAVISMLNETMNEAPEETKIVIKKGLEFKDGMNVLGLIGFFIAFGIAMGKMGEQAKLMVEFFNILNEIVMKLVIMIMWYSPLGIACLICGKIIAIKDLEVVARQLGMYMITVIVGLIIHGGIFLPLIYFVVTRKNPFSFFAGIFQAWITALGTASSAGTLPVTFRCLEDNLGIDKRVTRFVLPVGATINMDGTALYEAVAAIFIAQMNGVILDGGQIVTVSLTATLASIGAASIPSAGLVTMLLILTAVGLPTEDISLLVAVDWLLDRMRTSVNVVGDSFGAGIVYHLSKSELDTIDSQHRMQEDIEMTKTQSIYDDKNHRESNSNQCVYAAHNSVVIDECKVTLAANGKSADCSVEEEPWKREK

B1: GST alone (other)
chain: not shown
notes: Negative control of the pull-downs; also called control GST
no binding: all assays above
